Experimental data from PubChem BioAssay AID1745853 (National Center for Advancing Translational Sciences (NCATS), 2022).
“And” between values parts separate entries of the source, which are not always exact repeats. Equal values may be shown once. The list shows a part of the results. Further columns of the screen follow, without active or inactive calls.

Experiments:
Test in all cases: Primary Screen for Target Class Profiling of Small Molecule Inhibitors of Methyltransferases
[1] = biological target: Glycine N-methyltransferase (Homo sapiens) (UniProt Q14749); conditions: purified enzyme, MTase-Glo SAH luminescence; measured here: GNMT inhibition; at 40 µM; stronger effect = lower value
Summary of the method: (§1)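 Each enzyme was reacted with SAM and its substrate, with compounds tested once at 40 uM; SAH formed was read by MTase-Glo luminescence.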

[2] = biological target: Guanidinoacetate N-methyltransferase (Homo sapiens) (UniProt Q14353); conditions: purified enzyme, MTase-Glo SAH luminescence; measured here: GAMT inhibition; at 40 µM; stronger effect = lower value
Summary of the method: as §1

[3] = biological target: Histamine N-methyltransferase (Homo sapiens) (UniProt P50135); conditions: purified enzyme, MTase-Glo SAH luminescence; measured here: HNMT inhibition; at 40 µM; stronger effect = lower value
Summary of the method: as §1

[4] = biological target: Nicotinamide N-methyltransferase (Homo sapiens) (UniProt P40261); conditions: purified enzyme, MTase-Glo SAH luminescence; measured here: NNMT inhibition; at 40 µM; stronger effect = lower value
Summary of the method: as §1

[5] = biological target: Phenylethanolamine N-methyltransferase (Homo sapiens) (UniProt P11086); conditions: purified enzyme, MTase-Glo SAH luminescence; measured here: PNMT inhibition; at 40 µM; stronger effect = lower value
Summary of the method: as §1
% is scaled to controls: 0 for no effect and ±100 for the full control effect.

Structure (SMILES)	activity change, negative = inhibition [1]	activity change, negative = inhibition [2]	activity change, negative = inhibition [3]	activity change, negative = inhibition [4]	activity change, negative = inhibition [5]
C=CCCN1CCC2(CC1)CN(C(=O)c1c(F)cccc1F)c1ccc(Cl)cc12	-2.48%	3%	8.63%	-27.2%	-4.29%
Cc1ccc(N2CC(c3noc(-c4ccc5ccccc5n4)n3)CC2=O)cc1 (stereo not given)	-5.09%	-12.7%	-5.99%	-15.8%	-11.5%
COC(=O)c1cc2n(n1)CC(C)(C(=O)NC1CCC(C)CC1)N(c1ccc(C)cc1Cl)C2=O (stereo not given)	5.03%	0.008%	10.3%	-1.03%	3.37%
COCCn1ncc(N2CCC(C(=O)N3CCN(C(C)C)CC3)C2)cc1=O (stereo not given)	-4.56%	-9.48%	-2.32%	-9.51%	-3.26%
CCCC1c2cccn2CCN1C(=O)Nc1ccc(C)cc1 (stereo not given)	-0.965%	5.04%	-5.63%	7.27%	8.69%
C[C@@H]1O[C@@H](O[C@H]2[C@@H]3C=CO[C@@H](O[C@@H]4O[C@H](CO)[C@@H](O)[C@H](O)[C@H]4O)[C@@H]3[C@@]3(CO)O[C@@H]23)[C@H](OC(=O)/C=C/c2ccccc2)[C@H](O)[C@H]1O	-2.72%	-10.1%	1.83%	-17.9%	-0.984%
CC1(C(=O)NC2CCCCC2)Cn2c(ccc2-c2ccco2)C(=O)N1CCN1CCCCCC1 (stereo not given)	1.25%	2.63%	-6.58%	2.03%	-1.78%
CC(=O)Nc1c2n(c3ccc(F)cc13)CC(C)(C(=O)NCCC(C)C)N(Cc1cccs1)C2=O (stereo not given)	-8.99%	1.23%	3.74%	-0.243%	0.631%
CC(C)NC(=O)CSc1nnc2n(C)c(=O)c3ccc(C(=O)NC4CCCC4)cc3n12	-3.85%	4%	3.94%	-0.848%	1.54%
C[C@H](Oc1ccc(S(C)(=O)=O)cc1C(=O)N1CCN(c2ncc(C(F)(F)F)cc2F)CC1)C(F)(F)F	-3.79%	7.71%	9.54%	-11.4%	-0.618%
COc1ccc(OC2CCN(C3CCCC3)CC2)c(C(=O)NCCCN2CCCC2=O)c1	5.21%	1.38%	-9.05%	0.226%	-6.52%
CCOc1ccc(CCNC(=O)c2cc3n(n2)CC(C)(C(=O)NCc2ccc(F)cc2)N(C)C3=O)cc1 (stereo not given)	-0.343%	2.33%	-8.43%	6.25%	-0.122%
CC(C)CCNC(=O)C1(C)Cn2nc(C(=O)NCCCN3CCCCC3)cc2C(=O)N1C (stereo not given)	1.89%	4.29%	-2.2%	7.65%	2.3%
NC(c1ccccc1)c1nnc2n1CCN(C(=O)N1CCOCC1)C2 (stereo not given)	-7.38%	-7.47%	-0.739%	-4.31%	-3.78%
c1cnc2cc3c(cc2n1)C1CNCC3C1	-10.9% and 1.25%	11.9% and -1.54%	6.76% and 0.365%	-2.27% and -13.3%	7.2% and -6.69%
CCc1ccc2c(-c3cccc(Cl)c3)nc(=O)n(CC)c2n1	0.995%	13.6%	9.57%	-13.4%	1.87%
O=C(CCCCCCC(=O)Nc1ccccc1)NO	2.23%	1.29%	7.86%	-9.84%	-0.499%
COc1ccc(C(=O)Nc2nc3c(s2)C[C@@H]2[C@](C)(CO)[C@H](O)CC[C@@]2(C)[C@@H]3CC(=O)NC2CCCC2)cc1	-4.1%	-2.58%	-4.39%	-7.8%	3.27%
Clc1ccccc1C1(c2ccnc(C3CC3)n2)CCNCC1	-6.06%	-7.79%	-28.4%	-34.2%	-11.2%
Cc1cc(F)ccc1-c1nc(NCCN=C(N)NC#N)nc2c1ccc(=O)n2-c1c(F)cccc1F	-14%	-6.87%	1.12%	-29.6%	-12.5%

Structure (SMILES)	activity change, negative = inhibition [1]	activity change, negative = inhibition [2]	activity change, negative = inhibition [3]	activity change, negative = inhibition [4]	activity change, negative = inhibition [5]
CC1CCN(S(=O)(=O)c2ccc3c(c2)oc(=O)n3CC(=O)NCc2ccc(F)cc2)CC1	1.51%	0.817%	-1.07%	0.612%	-1.16%
Cc1occc1C(=O)N1CC(F)(F)C[C@H]1c1nnc(C2CC2)o1	-0.893%	-2.22%	0.32%	-4.04%	0.268%
COc1ccc(OC)c(S(=O)(=O)N2CCc3nc(-c4ccccc4)ncc3C2)c1	2.51%	0%	2.6%	-0.752%	2.5%
COc1ccccc1CCNC(=O)c1ncn2c1C(=O)N(C1CC1)C(C)(C(=O)NCc1ccc(F)cc1)C2 (stereo not given)	0.551%	1.19%	3.21%	0.78%	5.52%
Cc1ccc(CNC(=O)Cn2nc3n(C(C)C)c(=O)c4ccc(C(=O)NCC(C)C)cc4n3c2=O)cc1	2.29%	2.92%	6.22%	-0.825%	0.886%
COc1ccccc1C(=O)N1Cc2c(C(=O)NC3CC3)nn(C)c2C1	-0.667%	2.21%	2.54%	-1.02%	14.7%
Cn1c(=O)n(C)c2cc(S(=O)(=O)N(Cc3ccccc3)C(=O)c3cccs3)ccc21	2.11%	0%	0.669%	-17.8%	-1.08%
Nc1nonc1C(=Nc1ccc(F)c(Cl)c1)NO	-6.58%	-1.45%	3.51%	-13%	1.49%
CCCn1c(=O)c2ccc(C(=O)NC(C)C)cc2n2c(=O)n(CC(=O)Nc3cc(C)cc(C)c3)nc12	3.93%	0%	4.84%	3.57%	2.84%
CC1(C(=O)NC2CCCC2)Cn2c(ccc2-c2ccco2)C(=O)N1c1ccc(F)cc1 (stereo not given)	0.653%	0%	1.27%	-2.76%	-4.71%
CC(C)Cn1c(=O)c2cc(F)ccc2n2c(SCC(=O)Nc3cc(F)ccc3F)nnc12	-4.67%	4.71%	3.03%	-11.8%	-0.144%
CCCN(CCC)C(=O)Cn1c(=O)oc2cc(S(=O)(=O)N3CC(C)CC(C)C3)ccc21 (stereo not given)	-5.87%	0.363%	-9.45%	-1.21%	-10.6%
COc1ccccc1CNC(=O)C1c2c(n(C)c3ccccc23)SCC(=O)N1c1ccc2c(c1)OCCO2 (stereo not given)	7.47%	2.19%	2.56%	-0.415%	4.64%
O=C1NCCCN1C1CCN(Cc2ccncc2)CC1	-1.38%	-12.2%	-1.65%	-14.8%	-6.15%
Cc1ccc(CNC(=O)Cn2nc3n(C(C)C)c(=O)c4ccc(C(=O)NC5CCCC5)cc4n3c2=O)cc1	3.31%	6.18%	1.23%	-7.46%	-2.61%
C=C1[C@@H](OC(C)=O)CC[C@@]2(C)[C@@H](OC(C)=O)[C@H](OC(C)=O)C3=C(C)C[C@H](OC(=O)C(C)CC)[C@@H]([C@@H](OC(C)=O)[C@H]12)C3(C)C (stereo not given in full)	-3.69%	-3.92%	3.95%	-20.7%	-10.6%
CC(CCc1ccccc1)N1C(=O)c2cc3sccc3n2CC1(C)C(=O)NC1CCCCCC1 (stereo not given)	-7.6%	4.24%	-2.34%	-7.77%	-3.47%
O[C@@H]1C[C@@H](c2nc(-c3ccncc3)no2)N(Cc2cccs2)C1	-7.17%	-5.26%	-2.35%	-12.2%	7.81%
Cc1ccc(CCNC(=O)c2ncn3c2C(=O)N(C2CC2)C(C)(C(=O)NC2CCCC2)C3)cc1 (stereo not given)	-2.65%	0%	3.7%	-1.08%	0.324%
Oc1ccc(Cn2cc[nH]c2=S)cc1	-21.1%	10.8%	4.96%	-5.79%	5.02%

Structure (SMILES)	activity change, negative = inhibition [1]	activity change, negative = inhibition [2]	activity change, negative = inhibition [3]	activity change, negative = inhibition [4]	activity change, negative = inhibition [5]
CCc1ccc(NC(=O)Cn2nc3n(Cc4ccc(C)cc4)c(=O)c4ccccc4n3c2=O)cc1	3.77%	0%	5.46%	3.11%	2.26%
CCc1ccc(NC(=O)Cn2nc3n(CCc4ccccc4)c(=O)c4ccccc4n3c2=O)cc1	4.41%	0.667%	6.35%	6.98%	3.4%
COCCN1C(=O)c2ccccc2C(C(=O)Nc2cc(C)ccn2)C12CCCC2 (stereo not given)	-7.26%	-11.5%	-4.33%	-5.3%	-11.5%
O=C1N(Cc2cccc(F)c2F)CCCC1(O)CN1CCNCC1 (stereo not given)	-0.256%	-9.99%	-1.85%	-11.8%	-4.85%
CC(c1ncncc1F)C(O)(Cn1cncn1)c1ccc(F)cc1F (stereo not given)	4.57%	–	0.832%	–	–
Cc1nc(-c2c3n(c(=O)n(CC#N)c2=O)CCCCC3)no1	-1.66%	-3.78%	-0.529%	-1.25%	-0.855%
CC(C)c1cc2n(n1)CC(C)(C(=O)NC1CCCCCC1)N(Cc1ccc(Cl)cc1)C2=O (stereo not given)	-4.04%	2.15%	0.234%	-6.16%	-1.77%
Cc1ccc(CSc2nnc3n(CCC(C)C)c(=O)c4ccccc4n23)cc1	0.902%	3.93%	6.89%	-1.95%	7.19%
O=C(NC/C=C/CN1CCN(c2cccc(Cl)c2Cl)CC1)c1ccc(-c2ccccn2)cc1	1.64%	-1.26%	0.727%	-32.9%	-15.1%
C[C@@H]1C(=O)O[C@H]2CC34[C@H]5C[C@@H](C(C)(C)C)C36[C@@H](OC(=O)[C@@H]6O)O[C@@]4(C(=O)O5)[C@]21O (stereo not given in full)	-1.01%	-3.05%	-0.444%	-13.1%	0.868%
O=c1n(-c2ccc(C(F)(F)F)cc2)nc2n1CCN([S+](=O)([O-])c1ccccc1)C2	-3.8%	-6.91%	-3.67%	-5.05%	-3.8%
COc1ccccc1N1CCN(CCN(C(=O)c2ccc(F)cc2)c2ccccn2)CC1	-0.287%	10.6%	5.87%	-2.63%	6.74%
c1ccc(-c2ccccn2)nc1	-9.62%	-0.33%	-3.37%	-8.94%	1.05%
O=C(O)c1ccc2c(c1)nc(Nc1cccc(Cl)c1)c1ccncc12	-67.2%	-39%	-72.3%	-50.3%	-53%
Cc1ccc(NS(=O)(=O)c2cc3c(cc2Cl)n(C)c(=O)n3C)c(C)c1	2.37%	0%	-6.87%	-6.18%	-2.84%
COc1ccc2cc3n(c2c1)CC(C)(C(=O)NC1CCCC1)N(CCc1ccc(Cl)cc1)C3=O (stereo not given)	-4.58%	0.174%	-4.67%	-9.51%	-8.66%
CCCn1c(=O)c2cc(Cl)ccc2n2c(SCC(=O)Nc3cc(F)ccc3F)nnc12	-7.94%	3.22%	6.34%	-3.07%	-0.101%
CNC(=O)c1ccc(-c2cnc3cnc(C(=O)N(C)c4ccc(Cl)cc4)cn23)cc1	–	-35.8%	–	-42.5%	-46%
CC1(C(=O)NCc2ccc(Cl)cc2)Cn2c(ccc2-c2ccco2)C(=O)N1CCc1ccco1 (stereo not given)	-15.2%	-0.333%	4.31%	-9.88%	-2.3%
